Assay results published in PubChem BioAssay AID1347165 (National Center for Advancing Translational Sciences (NCATS), 2019).
Several values for one entry are separate records, joined by “and”; a condition that tells them apart may be missing. Identical values can stand only once. In all, about 220,000 compounds went through this assay and about 5,700 (2.6%) were called active. Inconclusive means that the source gave no clear call. Such entries were picked first, then a sample of the others. The call rests on the fitted dose curve; in most records, active means well fitted inhibition curve with a large enough effect; inconclusive means small, poorly fitted or top-dose-only effect; inactive means no such curve, though single readings can be large or run the other way. Where the call is inconclusive, the potency comes from a doubtful curve fit.

molecular target: Lysine-specific demethylase 5B (Homo sapiens) (UniProt Q9UGL1); test: Primary screen for KDM5B Histone Demethylases FDH-coupled qHTS; conditions: FDH-coupled NADH fluorescence (FDH is formaldehyde dehydrogenase); series mostly up to 57.7 µM; further: nearly all actives have a fitted effect of over 70% in size
Sequence of UniProt Q9UGL1 (Q9UGL1 whole entry, looked up): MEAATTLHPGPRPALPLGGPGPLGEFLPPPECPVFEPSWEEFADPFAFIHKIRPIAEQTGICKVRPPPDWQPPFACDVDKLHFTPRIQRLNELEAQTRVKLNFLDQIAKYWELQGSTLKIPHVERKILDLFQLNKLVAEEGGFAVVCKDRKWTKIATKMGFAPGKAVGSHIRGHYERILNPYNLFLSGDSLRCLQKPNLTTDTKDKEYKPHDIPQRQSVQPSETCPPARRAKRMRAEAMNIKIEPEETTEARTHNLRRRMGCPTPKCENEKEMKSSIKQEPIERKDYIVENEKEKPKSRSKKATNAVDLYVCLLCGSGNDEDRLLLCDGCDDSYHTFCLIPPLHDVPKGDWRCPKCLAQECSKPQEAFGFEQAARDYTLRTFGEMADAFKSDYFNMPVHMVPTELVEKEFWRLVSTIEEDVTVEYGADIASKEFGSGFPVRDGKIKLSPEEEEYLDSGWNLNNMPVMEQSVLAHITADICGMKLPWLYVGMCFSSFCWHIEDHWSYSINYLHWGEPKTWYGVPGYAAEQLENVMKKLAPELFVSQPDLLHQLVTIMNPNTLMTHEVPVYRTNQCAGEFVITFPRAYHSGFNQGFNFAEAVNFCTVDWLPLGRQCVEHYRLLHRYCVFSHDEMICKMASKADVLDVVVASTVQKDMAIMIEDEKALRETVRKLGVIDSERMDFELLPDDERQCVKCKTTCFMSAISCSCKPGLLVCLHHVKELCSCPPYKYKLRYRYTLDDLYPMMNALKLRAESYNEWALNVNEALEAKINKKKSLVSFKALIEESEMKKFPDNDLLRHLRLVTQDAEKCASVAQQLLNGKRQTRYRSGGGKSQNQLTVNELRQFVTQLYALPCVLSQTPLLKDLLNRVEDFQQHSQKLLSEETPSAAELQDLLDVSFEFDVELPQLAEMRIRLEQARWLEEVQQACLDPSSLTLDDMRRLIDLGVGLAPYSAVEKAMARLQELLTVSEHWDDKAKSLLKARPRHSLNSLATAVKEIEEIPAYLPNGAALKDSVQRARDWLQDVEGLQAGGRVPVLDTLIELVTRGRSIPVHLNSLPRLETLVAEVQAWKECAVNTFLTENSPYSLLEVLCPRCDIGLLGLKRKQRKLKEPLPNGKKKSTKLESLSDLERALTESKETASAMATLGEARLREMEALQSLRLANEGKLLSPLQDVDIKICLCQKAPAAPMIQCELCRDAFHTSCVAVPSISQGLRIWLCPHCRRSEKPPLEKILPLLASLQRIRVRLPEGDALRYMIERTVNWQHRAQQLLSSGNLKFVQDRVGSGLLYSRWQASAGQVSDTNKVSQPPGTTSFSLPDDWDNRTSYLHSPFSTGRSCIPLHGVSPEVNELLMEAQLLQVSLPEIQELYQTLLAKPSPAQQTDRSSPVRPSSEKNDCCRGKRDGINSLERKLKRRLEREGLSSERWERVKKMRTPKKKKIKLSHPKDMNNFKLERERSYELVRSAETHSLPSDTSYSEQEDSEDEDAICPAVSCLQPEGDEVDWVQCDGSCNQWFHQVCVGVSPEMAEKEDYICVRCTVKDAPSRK
Procedure, shortened: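 Here, H3K4me3 peptide (12.5 µM in substrate mix) is demethylated by KDM5BΔAP, 200 nM final, after 10 min compound exposure. Formaldehyde product is coupled through FDH (0.25 U/mL in mix) to NADH fluorescence; 30-min ΔRFU feeds dose-response curves.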
Potency means the concentration at half of the fitted maximal effect; tags describe the fitted curve by direction and shape.

Compound | Potency
COc1ccc(-c2cn3c(n2)sc2cc(C(=O)NCCCN4CCCCCC4)ccc23)cc1 | inconclusive: 15.8 µM [inhibitor, partial curve, poor fit]
CC(=O)N1CCC(C(=O)NCC2CCN(c3cc(-c4ccc(C)cc4)[nH]n3)CC2)CC1 | inconclusive: 17.8 µM [inhibitor, partial curve, poor fit]
O=C(CC1CCCCC1)NCC(=O)N1CCCCCCNC(=O)CC1c1ccccc1 (stereo not given) | inconclusive: 15.8 µM [inhibitor, single point]
COc1ccc(S(N)(=O)=O)cc1C(=O)NCc1cccnc1-n1ccnc1 | inconclusive: 35.5 µM [inhibitor, single point]
CCCn1nc(C)c(-c2cc(C(=O)N3CCc4nc5cc(-c6ccccc6)[nH]n5c(=O)c4C3)[nH]n2)c1C | inconclusive: 14.1 µM [inhibitor, partial curve, poor fit]
Clc1ccccc1CNc1nc2ccccc2n2cnnc12 | inconclusive: 31.6 µM [inhibitor, single point]
COc1ccccc1NC(=O)c1c(NCc2ccc(C)o2)sc2c1CCC(C)C2 (stereo not given) | inconclusive: 17.8 µM [inhibitor, partial curve, poor fit]
COc1ccc(Cl)cc1C(=O)NC1CCCN(c2cc(-c3ccc(F)cc3)[nH]n2)C1 (stereo not given) | inconclusive: 28.2 µM [inhibitor, single point]
CN(c1ccccc1)S(=O)(=O)c1cccc(NC(=O)CN2CCCc3ccccc32)c1 | inconclusive: 39.8 µM [inhibitor, partial curve, poor fit]
COc1ccc(-c2ccc(CCC(=O)Nc3cc(Cl)ccc3OC)o2)cc1 | inconclusive: 25.1 µM [inhibitor, single point]
COc1ccccc1C(=O)n1nc(-c2ccco2)nc1NCc1ccc(Cl)cc1 | inconclusive: 25.1 µM [inhibitor, single point]
O=C(NCc1ccco1)N1CCc2c(nc(-c3ccc(F)cc3)[nH]c2=O)C1 | inactive
CNc1cc(C(=O)N2CCN(CC(=O)O)CC(O)C2)ccn1 (stereo not given) | inconclusive: 28.2 µM [inhibitor, partial curve, poor fit]
COc1cccc2cc(C(=O)NCc3ccc(Cl)cc3)c(=O)oc12 | inconclusive: 20 µM [inhibitor, single point]
COc1ccc(S(=O)(=O)c2c(Nc3ccc(F)cc3)sc(C(=O)c3ccc4c(c3)OCO4)c2N)cc1 | inconclusive: 11.2 µM [inhibitor, partial curve, poor fit]
Cc1ccc(-c2csc(=Nc3ccccc3)n2Cc2ccc3c(c2)OCO3)cc1C | inconclusive: 28.2 µM [inhibitor, partial curve, poor fit]
CC(C)Cc1cnc2c(c1SCC(=O)NC(C)C)c(=O)n(C)c(=O)n2C | inactive
COc1ccc(-c2ccc3c(c2)C(=O)N2CCN(C(=O)COCC(=O)O)C[C@@H]2C(=O)N3)c(OC)c1 | inconclusive: 31.6 µM [inhibitor, partial curve, poor fit]
CCCS(=O)(=O)N1CCC(Oc2nccnc2N2CCOCC2)C1 (stereo not given) | inactive
CN1CC(=O)N(C2CCNC2)Cc2c1ncnc2N1CCC(N2CCCC2)CC1 (stereo not given) | inconclusive: 50.1 µM [inhibitor, partial curve]

Compound | Potency
COc1cccc(CNC(=O)c2nn(-c3ccccc3Cl)nc2CO)c1 | inconclusive: 0.794 µM [inhibitor, partial curve, poor fit]
CCc1cc(=O)oc2cc(OC(C)C(=O)NCc3ccncc3)c(Cl)cc12 (stereo not given) | inconclusive: 15.8 µM [inhibitor, single point]
COc1ccc2nc(/N=C(\N)NC(=O)C(C)(C)C)nc(C)c2c1 | inconclusive: 1.78 µM [inhibitor, partial curve, poor fit]
O=C(NCCc1ccc(Cl)cc1)c1ccc(Cn2c(=O)c3cccn3c3cccnc32)cc1 | inconclusive: 35.5 µM [inhibitor, partial curve, poor fit]
O=C(CCNC(=O)c1ccc(Cl)cc1)Nc1ncccc1O | inconclusive: 25.1 µM [inhibitor, partial curve, poor fit]
C/C(=N\O)c1ccc2ccccc2c1 | inconclusive: 35.5 µM [inhibitor, partial curve, poor fit]
CC(C)c1ccc(CC(=O)N2CCCc3ncc(C(=O)NCCOc4ccccc4)cc32)cc1 | inactive
CC(NC(=O)COc1ncnc2ccc(Br)cc12)c1ccccc1 (stereo not given) | inactive
CCc1cc2c(=O)c(-c3ccc4c(c3)OCO4)coc2c(CN(C)C)c1O | inconclusive: 31.6 µM [inhibitor, partial curve, poor fit]
O=C(c1cnc(N2CCCCC2)c2ccccc12)N1CCN(c2ccccc2F)CC1 | inconclusive: 39.8 µM [inhibitor, single point] and inconclusive: 31.6 µM [inhibitor, single point]
COc1ccc(-c2cc(C(=O)OC(C)C)c3ccccc3n2)cc1 | inconclusive: 25.1 µM [inhibitor, partial curve, poor fit]
CCCSc1oc(-c2cccs2)nc1S(=O)(=O)c1ccc(Cl)cc1 | inconclusive: 31.6 µM [inhibitor, partial curve, poor fit]
CSc1cccc(NC(=O)c2ccc(NC(=O)N3CCSc4nc(C)cc(C)c43)cc2)c1 | inconclusive: 25.1 µM [inhibitor, single point]
CCOc1ccccc1NC(=O)c1ccc2[nH]c(C)c(C)c2c1 | inconclusive: 39.8 µM [inhibitor, single point]
Cc1ccc2c(c1)c1c(c(=O)n(Cc3ccccc3)c(=O)n1Cc1cccc(C(F)(F)F)c1)n2C | inconclusive: 15.8 µM [inhibitor, partial curve, poor fit]
COCCO[C@H]1C(=O)N(C2CCN(C(=O)c3ccc4cc[nH]c4c3)CC2)[C@H]1c1ccncc1 | inconclusive: 31.6 µM [inhibitor, single point]
COc1ccc(Cn2c(CNS(=O)(=O)c3ccc4c(c3)CCCC4)nc3cccnc32)cc1 | inconclusive: 35.5 µM [inhibitor, single point]
COCCOc1ncccc1-c1noc([C@@H]2CCCN2CC2CC2)n1 | inconclusive: 56.2 µM [inhibitor, single point]
O=C(NCc1cccs1)C1CCN(c2nc3ncccc3o2)CC1 | active: 31.6 µM
Cn1c(C(=O)NCCc2ccccc2)cc2c(=O)n3ccccc3nc21 | inconclusive: 15.8 µM [inhibitor, partial curve, poor fit]

Compound | Potency
O=C(c1ccc2c(c1)OCCO2)N(Cc1cccnc1)c1nc2c(F)cccc2s1 | inconclusive: 25.1 µM [inhibitor, single point]
O=C(COC(=O)/C=C/c1ccc2c(c1)OCO2)NC1CCS(=O)(=O)C1 (stereo not given) | inconclusive: 28.2 µM [inhibitor, single point]
CC1(C)CC(=O)C(C(C2=C(O)CC(C)(C)CC2=O)c2cc(Cl)c(O)c(Cl)c2)C(=O)C1 (stereo not given) | inconclusive: 25.1 µM [inhibitor, partial curve, poor fit]
CC(Sc1nc2ccccc2[nH]1)C(=O)NC(N)=O (stereo not given) | inactive
COc1cc(OC)c(NC(=O)Cn2ccn3nc(-c4ccc(F)cc4)c(CO)c3c2=O)cc1Cl | inconclusive: 35.5 µM [inhibitor, single point]
CC(=O)N1CCC(C2CCN(Cc3ccc(C#N)cc3)C2)CC1 (stereo not given) | inconclusive: 31.6 µM [inhibitor, single point]
O=C(c1ccccc1)N1CCC2(CC1)SCC(=O)N2c1ccccc1 | inactive
COCc1nc(C2CC(N)C2)cc(N2CCC(c3[nH]ncc3C)CC2)n1 (stereo not given) | inconclusive: 8.91 µM [inhibitor, partial curve]
COc1cccc(CN2Cc3nc(-c4cn[nH]c4)ccc3OCC2=O)c1 | inactive
CCOc1ccc(CNc2cccc(C)c2)cc1 | inconclusive: 20 µM [inhibitor, partial curve, poor fit]
Cc1ccc([N+](=O)[O-])cc1N=C/C(Br)=C/c1ccccc1 | inconclusive: 11.2 µM [inhibitor, partial curve, poor fit]
O=C(Cc1noc(C(=O)NC2CCCCC2)n1)Nc1cccc2ncccc12 | inconclusive: 31.6 µM [inhibitor, single point]
CCCNC(=O)c1cc2c(=O)[nH]c(C)cn2n1 | inconclusive: 31.6 µM [inhibitor, partial curve, poor fit]
CCc1ccc(NC(=O)CCn2cnc3onc(-c4ccccc4Cl)c3c2=O)cc1 | inactive
CCCn1c2ccccc2c2cnn(CC(=O)N3CCC(C(=O)OCC)CC3)c(=O)c21 | inconclusive: 17.8 µM [inhibitor, partial curve, poor fit]
COc1cccc(C2c3c(oc4ccc(C)cc4c3=O)C(=O)N2CCCN2CCOCC2)c1OC (stereo not given) | inactive
Cc1cccc(-c2noc(-c3cccnc3NCc3ccco3)n2)c1 | inconclusive: 15.8 µM [inhibitor, partial curve, poor fit]
Cc1c(-c2ccccc2)nn2c1NC(=O)CC2C(=O)Nc1ccccc1Cl (stereo not given) | inconclusive: 39.8 µM [inhibitor, single point]
COc1ccc(-n2c(=O)c3c4c(sc3n(Cc3cc(C)ccc3C)c2=O)CN(C(C)=O)CC4)c(OC)c1 | inconclusive: 28.2 µM [inhibitor, partial curve, poor fit]
CSc1ccc(/C=C(/C#N)S(=O)(=O)c2ccc(C)cc2)cc1 | inconclusive: 35.5 µM [inhibitor, single point]
